# Data reported in US4322555A, “Nonaprenylamine derivatives” (priority 1980, dated 1982).
# Counter-ions that a name gives are not always drawn.
# Tested on: influenza virus A/PR-8
# Conditions: 30 mg/kg i.p., 24 h and 3 h before infection and 5 times every other day from second day after; 21 days after challenge
row,Structure (SMILES),Prevention from influenza injection (Survival rate) [%]
1,"NC12CC3CC(CC(C3)C1)C2 [Amantadine hydrochloride, reference compound]",30
2,CC(C)=CCCC(C)=CCCC(C)=CCCC(C)=CCCC(C)=CCCC(C)=CCCC(C)=CCCC(C)=CCCC(C)=CCNCc1ccccc1 [N-benzylsolanesylamine hydrochloride],80
3,CC(C)=CCCC(C)=CCCC(C)=CCCC(C)=CCCC(C)=CCCC(C)=CCCC(C)=CCCC(C)=CCCC(C)=CCN(C)Cc1ccccc1 [N-methyl-N-benzylsolanesylamine hydrochloride],20
4,CC(C)=CCCC(C)=CCCC(C)=CCCC(C)=CCCC(C)=CCCC(C)=CCCC(C)=CCCC(C)=CCCC(C)=CCN(C)c1ccccc1 [N-methyl-N-phenylsolanesylamine],20
5,CC(C)=CCCC(C)=CCCC(C)=CCCC(C)=CCCC(C)=CCCC(C)=CCCC(C)=CCCC(C)=CCCC(C)=CCNCCc1ccccc1 [N-phenethylsolanesylamine hydrochloride],60
